Assay results reported in PubChem BioAssay AID1345082 (National Center for Advancing Translational Sciences (NCATS), 2018).
Screen size: about 94,000 compounds; about 4,000 (4.3%) were called active. The inconclusive results got no clear call from the source; some entries with a clear call stand among them for comparison. The call rests on the fitted dose curve; in most records, active means well fitted inhibition curve with a large enough effect; inconclusive means small, poorly fitted or top-dose-only effect; inactive means no such curve, though single readings can be large or run the other way. Where the call is inconclusive, the potency comes from a doubtful curve fit.

assay: Cytotoxic Profiling in NIH 3T3 Cell Line of Diverse Libraries Using Quantitative High-Throughput Screening; settings: NIH 3T3 viability, CellTiter-Glo ATP luminescence, 48-72 h; series mostly up to 96.7 µM; further: nearly all actives have a fitted effect of over 55% in size
How it was run: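 Viability of NIH 3T3 cells after 48 or 72 hr compound treatment at 37 °C was assessed by CellTiter-Glo, with luminescence imaged following a 10 min room-temperature step.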
Potency means the concentration at half of the fitted maximal effect; tags describe the fitted curve by direction and shape.

| SMILES | Potency |
| --- | --- |
| O=[S+]1([O-])NCC2(CCN(Cc3ccccc3C(F)(F)F)CC2)Nc2ccccc21 | inactive |
| Cc1ccccc1C(=O)NC1CN(c2ccnc3ccnn23)C1 | inconclusive: 50.1 µM [inhibitor, partial curve, poor fit] |
| O=C(Cc1cccc(F)c1)N1CCCCCC1c1nnc(-c2ccccc2)o1 (stereo not given) | inconclusive: 31.6 µM [inhibitor, partial curve, poor fit] |
| COc1ccc(Nc2ccnc(N3CCCC(C(=O)N4CCOCC4)C3)n2)cc1 (stereo not given) | inactive |
| Cc1cccc2c(C3CCN(S(=O)(=O)c4c(Cl)cccc4Cl)CC3)c[nH]c12 | inconclusive: 39.8 µM [inhibitor, partial curve] |
| CS(=O)(=O)N1CC2(CCN(Cc3c[nH]c4ccccc34)C2)Cc2ccccc21 (stereo not given) | inconclusive: 50.1 µM [inhibitor, partial curve, poor fit] |
| CCc1nc(-c2ccc(OC3CCN(C(=O)COc4ccc(F)cc4)C3)cc2)no1 (stereo not given) | inconclusive: 50.1 µM [inhibitor, partial curve, poor fit] |
| COc1ccc(-c2cc(N3CCCN(C(=O)c4ccc(C)s4)CC3)n[nH]2)cc1 | inconclusive: 44.7 µM [inhibitor, partial curve, poor fit] |
| COc1ccc(N2CCN(c3nc(C(=O)NCc4ccc(F)cc4F)cs3)CC2)cc1 | inconclusive: 50.1 µM [inhibitor, partial curve, poor fit] |
| O=C(NC1CCCCCC1)c1nc2sccn2c1-c1ccc(F)cc1 | inconclusive: 112 µM [inhibitor, single point] |
| CCc1ccc(NC(=O)Cn2ccn3nc4c(c3c2=O)CC(C)CC4)cc1 (stereo not given) | inconclusive: 44.7 µM [inhibitor, partial curve, poor fit] |
| CCN1c2cc(C(=O)NCc3cccc(OC)c3)ccc2C(=O)N2CCCCCC21 (stereo not given) | inconclusive: 35.5 µM [inhibitor, partial curve, poor fit] |
| COc1ccc(N2CC3CCC(C2)N3Cc2cccc(-c3cccnc3)c2)cc1 | inconclusive: 39.8 µM [inhibitor, partial curve, poor fit] |
| Cc1cc(S(=O)(=O)N[C@@H]2CCOC[C@H]2Oc2ccccn2)c(C)s1 | inactive |
| Cc1cc(N2CCC3(CCCN(C)C3=O)C2)nc(-c2ccccc2O)n1 (stereo not given) | inconclusive: 63.1 µM [inhibitor, partial curve, poor fit] |
| Cc1ccc(CN2CCC3(CC2)CN(C2CCC2)CC3CO)o1 (stereo not given) | inconclusive: 50.1 µM [inhibitor, single point] |
| COc1ccc(-c2cc(N3CCCC(NC(=O)c4ccsc4)C3)n[nH]2)cc1 (stereo not given) | inconclusive: 70.8 µM [inhibitor, single point] |
| O=C(Cc1c[nH]c2ccccc12)NC1CCCc2c1[nH]c1ccc(F)cc21 (stereo not given) | active: 31.6 µM |
| COCc1cn(C[C@H]2C[C@@H](NC(=O)CC(C)(C)C)[C@H](O)[C@@H]2O)nn1 | inactive |
| CN(Cc1ccc2nonc2c1)C(=O)C1CCN(C(=O)C2CCCC2)CC1 | active: 39.8 µM |
| O=[S+]([O-])(c1cccs1)N1CCCC2(CC(c3ccccc3)=NO2)C1 (stereo not given) | inconclusive: 8.91 µM [inhibitor, full curve, poor fit] |
| COc1cc(-c2nccc3c(=O)cc(N(C)c4ccccc4)oc23)ccn1 | active: 10 µM |

| SMILES | Potency |
| --- | --- |
| Cc1nc2c(c(-c3ccc(O)cc3)n1)CN(C(=O)c1ccccc1)CC2 | inconclusive: 89.1 µM [inhibitor, partial curve, poor fit] |
| COCCNC(=O)c1cc(-c2ccc([S+](C)(=O)[O-])cc2)c2cccn2n1 | inconclusive: 70.8 µM [inhibitor, single point] |
| COc1ccccc1OC1CCN(Cc2cc3n(n2)CCNC3)CC1 | inactive |
| CC(C)N1C(=O)C2(CCCCC2)C1C(=O)NCc1cc(F)cc(F)c1 (stereo not given) | inactive |
| O=C(Nc1ccc(Cl)cc1)NC1CCN(c2ccc3nnc(C4CC4)n3n2)C1 (stereo not given) | inconclusive: 39.8 µM [inhibitor, partial curve, poor fit] |
| Cn1nc(C2CCN(C(=O)c3ccc4ccccc4n3)CC2)n(-c2ccccc2)c1=O | inconclusive: 70.8 µM [inhibitor, single point] |
| Cn1cc(CN2Cc3ccc(C(=O)Nc4nccs4)cc3OCC2=O)cn1 | inconclusive: 100 µM [inhibitor, partial curve, poor fit] |
| CN1CCN(C(=O)c2ccc(-c3ccc(N4CCSCC4)nc3)cc2)CC1 | inconclusive: 70.8 µM [inhibitor, single point] |
| CC1Oc2ccc(NC(=O)Cc3ccccc3)cc2CN(Cc2ccc(F)cc2)C1=O (stereo not given) | inconclusive: 39.8 µM [inhibitor, partial curve] |
| Cn1nc(C2CCCC2)cc1NC(=O)Cc1ccc(F)cc1 | inconclusive: 89.1 µM [inhibitor, partial curve] |
| CN(C)CCN(C)[C@@H]1[C@H](O)[C@H](CO)O[C@@H]1CN(Cc1ccc(Cl)cc1)Cc1cccc(Cl)c1 | active: 28.2 µM |
| O=C(NCc1ccc(Cl)cc1)c1nc2sccn2c1-c1ccncc1 | inconclusive: 44.7 µM [inhibitor, partial curve, poor fit] |
| O=C1Nc2ccccc2CC12CN(Cc1c[nH]c3ccccc13)C2 | inconclusive: 79.4 µM [inhibitor, single point] |
| CN(Cc1cccnc1)c1nc2c(c(=O)[nH]1)CCN(Cc1ccccc1Cl)CC2 | inconclusive: 25.1 µM [inhibitor, full curve] |
| O=C(Cc1cccc(Cl)c1)N1CCC2(CC1)CC(c1cccc(C(F)(F)F)c1)=NO2 | inconclusive: 12.6 µM [inhibitor, full curve, poor fit] |
| COc1ccccc1-c1ccc(CN2CCN(c3ccc(Cl)nn3)C(=O)C2)cc1 | inactive |
| COC(=O)C1CCN(C(=O)CC[C@H]2CNC(=O)[C@@H]3[C@@H](CCN3C(C)C)N2C)CC1 | inactive |
| O=C(Nc1ccccc1Cl)C1CCCN(Cc2cccc(-c3ccc(F)cc3F)c2)C1 (stereo not given) | active: 35.5 µM |
| Cc1ccc(NC(=O)c2ccc3oc(-c4cccnc4)nc3c2)cc1 | inactive |
| S=C(NC1CCCCC1)N[C@H]1CO[C@H]2[C@@H]1OC[C@@H]2n1cc(-c2ccccn2)nn1 | inconclusive: 14.1 µM [inhibitor, partial curve, poor fit] |
| CCN1C(=O)C2(CCN(S(=O)(=O)c3cc(F)ccc3C)CC2)c2ccccc21 | inactive |
| Cc1ccc(OCCC2CCN(C(=O)c3ccccc3F)C2)cc1 (stereo not given) | inconclusive: 44.7 µM [inhibitor, partial curve, poor fit] |

| SMILES | Potency |
| --- | --- |
| Clc1cnccc1CN1CCNc2cnc(-c3ccccc3)cc2C1 | inconclusive: 63.1 µM [inhibitor, partial curve, poor fit] |
| CC(C)Cc1cc(C(=O)N2CCC(n3cc(-c4ccccn4)nn3)CC2)on1 | inconclusive: 28.2 µM [inhibitor, partial curve, poor fit] |
| O=C(Nc1ccncn1)[C@@H]1C[C@@H](c2cccc(C(F)(F)F)c2)N(CC2CCOCC2)C1 | inconclusive: 56.2 µM [inhibitor, partial curve, poor fit] |
| COc1ccccc1N1CCN(C(=O)C2CCCN(C(=O)c3ccccc3)CCC(=O)NCC2)CC1 (stereo not given) | inactive |
| Cc1ccc(C(=O)N2CCC(N3C(=O)C4(CCCC4)C3c3ccccc3)CC2)s1 (stereo not given) | inconclusive: 44.7 µM [inhibitor, partial curve, poor fit] |
| Cn1ncc(N2CCCC(CC(=O)Nc3ccc(Cl)cc3)C2)cc1=O (stereo not given) | inconclusive: 44.7 µM [inhibitor, partial curve, poor fit] |
| Cc1nc2c(c(-c3ccc(O)cc3)n1)CN(Cc1ccc(C(F)(F)F)cc1)CC2 | inactive |
| CCN1C(=O)Cc2cc(C(=O)NCc3ccc(F)cc3Cl)ccc21 | inactive |
| NCc1ccc(-c2cccc(O)c2)cc1 | active: 89.1 µM |
| COc1ccc(OC)c(NC(=O)COc2ccc(-c3nnc4n3CCCC4)cc2)c1 | inactive |
| COc1ccc(-c2ccc(C(=O)N3CCN([S+](=O)([O-])c4c(C)noc4C)CC3)cc2)nn1 | inactive |
| COc1ccc(-c2ccnc3nc(C4CCC4)nn23)cc1OC | inconclusive: 44.7 µM [inhibitor, partial curve, poor fit] |
| NCCCC(=O)N1CCC2(CC1)CN(C(=O)c1ccc(Cl)cc1)CCO2 | active: 31.6 µM |
| CCNC(=O)c1cccnc1OC1CCN(C(=O)Cc2cccc(Cl)c2)C1 (stereo not given) | inactive |
| O=C(NCc1nnc2n1CCC2)c1ccc2nc(-c3ccc(F)cc3)cn2c1 | inactive |
| COc1ccc(OC)c(CN2CC[C@@H]3OCC(=O)N(C(C)C)[C@H]3CC2)c1 | inconclusive: 79.4 µM [inhibitor, partial curve] |
| CN(C)S(=O)(=O)N1CCc2nc3cc(-c4ccccc4)[nH]n3c(=O)c2C1 | inactive |
| CCn1cc(-c2ccc(OC)cc2)cc1C(=O)NCCN1CCN(C)CC1 | inconclusive: 44.7 µM [inhibitor, partial curve, poor fit] |
| Cc1ccc(NC(=O)c2cc(-c3ccc[nH]3)n[nH]2)cc1F | inconclusive: 50.1 µM [inhibitor, partial curve, poor fit] |
| O=C(NC1CCN(CCn2nc3n(c2=O)CCCC3)C1)c1ccc(Cl)cc1 (stereo not given) | inactive |
| Cc1ccc2c(C(=O)NCc3ccc(F)c(Cl)c3)cc(NC(=O)C(C)C)cc2n1 | inconclusive: 44.7 µM [inhibitor, partial curve, poor fit] |
